Results from the RNAGym collection of RNA variant scans (doi:10.7554/elife.90254).
Read counts are not given, so values of variants with three or more changes are uncertain.

B1: LINE1-full (parent)
chain: UACGUAGGUGGUUUUCCCCUGAUAGUGCUAAGGGGGCCUGGAAGUUUGGACUGGGCAGAGCUCAACACAGCGUGGCAAAGUGGCUGUGGCUAGACUGCCUCUCUGGAUUCCUCGUCACUCAGCAGGGCAUCUCUGAGAGAAAUGCC

Variants of: B1
Assay: self-cleavage, relative activity (ratio to wild type); higher = more cleavage; in vitro, sequencing; the parent is a self-cleaving ribozyme
A2G G83A U119A gave a self-cleavage of 1.47.
Work on A2G A57G A64U G89A U91A U108C yielded a self-cleavage of 0.
For U1C A69C G144A, the self-cleavage was 0.08.
For U1C U15C A117U, the self-cleavage was 0.77.
U1A U12C C90U showed a self-cleavage of 0.21.
For U1C G35A A107U, the self-cleavage was 1.06.
U1C A117U A136G showed a self-cleavage of 0.62.
With A2G U12C U45A A69U U73C the self-cleavage was 0.
In the case of A2G U26A U39A G53A, the self-cleavage is reported as 0.58.
For U1C G49A A94G, the self-cleavage was 0.11.
In the case of U1A G7A A65G, the self-cleavage is reported as 0.08.
In the case of A2G C71A U109C, the self-cleavage is reported as 0.29.
With A2G U29C C98U the self-cleavage was 0.73.
For A2G U14C A30G U73A, the self-cleavage was 0.98.
A2G U5C A30U U47A A124G showed a self-cleavage of 0.63.
U1A U46A A107G gave a self-cleavage of 0.73.
Work on U1C A78G A92G yielded a self-cleavage of 0.
In the case of U1G A69U U130C, the self-cleavage is reported as 0.19.
In the case of A2G G74U U119C U134A, the self-cleavage is reported as 1.4.
With A2G A107U A129G the self-cleavage was 2.92.
With A2G C18A U39A C68U A94U the self-cleavage was 0.2.
Variant A2G G32A U39C G93A U119A has a self-cleavage of 0.1.
With U1C A59G U62C U91A U96A U109C the self-cleavage was 0.75.
U1A A6C A64G A67U gave a self-cleavage of 0.47.
U1C A69G C71U A124G showed a self-cleavage of 0.03.
U1C U96C A121U A141G showed a self-cleavage of 0.08.
In the case of A2G U15A A22U U26C G54A U96C, the self-cleavage is reported as 0.37.
With U1G A6G A64G the self-cleavage was 0.38.
With U1C A42U A77G G126A the self-cleavage was 0.67.
Work on U1G A43G A69C A138G yielded a self-cleavage of 0.71.
Work on U1C A22G U87A yielded a self-cleavage of 0.08.
U1C C95U U115C U119C A141G gave a self-cleavage of 0.35.
In the case of A2G U20A U26A U81A, the self-cleavage is reported as 0.93.
For A2G U15A A57U G97A, the self-cleavage was 0.22.
Variant U1C A50G U132C has a self-cleavage of 0.16.
Variant U1C C61G A107U has a self-cleavage of 0.05.
Variant U1C U13C U87G A140G has a self-cleavage of 0.
U1A G48A U96C U130A showed a self-cleavage of 0.2.
A2G A69G U96C gave a self-cleavage of 0.
U1C U14C U130C gave a self-cleavage of 0.61.
Variant U1C U26C U87A U132A has a self-cleavage of 0.
U1C A43G A67G U81A showed a self-cleavage of 1.4.
In the case of U1C A42G G58U U81C A117G A138G, the self-cleavage is reported as 0.
For U1C A42G A138G, the self-cleavage was 1.03.
Work on A2G U39C C133A yielded a self-cleavage of 0.63.
Work on U1C A22U U45A yielded a self-cleavage of 0.48.
For U1C A22G A138G, the self-cleavage was 1.08.
U1C U45G A107G showed a self-cleavage of 1.1.
Variant A2G C37G A42G A92U C131U A136G has a self-cleavage of 1.05.
U1A U73A A107U U130C gave a self-cleavage of 1.84.
For U1C A2G U81C, the self-cleavage was 0.4.
U1C A43U A69U A141G showed a self-cleavage of 0.05.
A2C A6G G32C G97A U102C U108C gave a self-cleavage of 0.12.
Work on U1A U20A U73C U104A yielded a self-cleavage of 0.92.
With U1A A50G G97A the self-cleavage was 0.11.
With A2G U39A C113A the self-cleavage was 2.63.
In the case of U1A G35U A57U, the self-cleavage is reported as 0.48.
Work on A2G A69C U100C U132C yielded a self-cleavage of 1.84.
In the case of U1C G40A U102C, the self-cleavage is reported as 0.84.
A2G U9A G122A gave a self-cleavage of 0.61.
Work on U1C A42G U45C U143A yielded a self-cleavage of 0.44.
U1C U46C U52C showed a self-cleavage of 0.
Work on U1C A2G A30G U81C yielded a self-cleavage of 0.88.
For A2G U15C C19U, the self-cleavage was 1.29.
For U1C A2G A22U A31G U39C A138G, the self-cleavage was 1.02.
For U1C A124U U130C, the self-cleavage was 1.24.
Work on A2G U15C U96A yielded a self-cleavage of 0.21.
A2G U20C U62G gave a self-cleavage of 0.
U1C A50U U73C A117U gave a self-cleavage of 1.61.
In the case of U1C A77G U100C, the self-cleavage is reported as 0.46.
Variant A2G U9C A138G has a self-cleavage of 0.53.
Work on U1C U85C U102C C111U U132C A140C yielded a self-cleavage of 0.
Work on U1C U15C A92G yielded a self-cleavage of 0.06.
Work on A2G G8A U87C U115A A140U yielded a self-cleavage of 0.
Work on A2G U14C C84G A121G U134C yielded a self-cleavage of 0.41.
In the case of U1C U52A A59G G75C A77U C123U, the self-cleavage is reported as 0.05.
With A2G G35A A92G the self-cleavage was 0.18.
With U1C U13G A142G the self-cleavage was 1.07.
Work on A2G C38A A138U yielded a self-cleavage of 0.46.
In the case of A2G G27A G40U G114C U143A, the self-cleavage is reported as 0.51.
U1C A64U A65G A77U showed a self-cleavage of 0.09.
U1C A65G A92U showed a self-cleavage of 0.
Variant U1C U47A G75A U81A U87C has a self-cleavage of 0.11.
Work on U1C A2C U12C yielded a self-cleavage of 0.35.
